Source: publication PMC6919601, “Identification of Plasmodium dipeptidyl aminopeptidase allosteric inhibitors by high throughput screening” (PLoS ONE, 2019)
Screen size: about 110,000 compounds; about 230 (0.21%) showed an effect of 50% or more. The list shows a part of the results.

Biological target: DPAP1 (Plasmodium falciparum, UniProt Q8IIJ9)
Assay: primary screen, percent inhibition; read by cleavage of a fluorogenic dipeptide substrate; higher = more effect of the substance
Set-up: species or system P. falciparum D10 trophozoite lysates; single well
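Also: 30 min substrate incubation versus DMSO and 10 µM JCP410 controls.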

DPAP1, sequence (Q8IIJ9 whole entry, looked up): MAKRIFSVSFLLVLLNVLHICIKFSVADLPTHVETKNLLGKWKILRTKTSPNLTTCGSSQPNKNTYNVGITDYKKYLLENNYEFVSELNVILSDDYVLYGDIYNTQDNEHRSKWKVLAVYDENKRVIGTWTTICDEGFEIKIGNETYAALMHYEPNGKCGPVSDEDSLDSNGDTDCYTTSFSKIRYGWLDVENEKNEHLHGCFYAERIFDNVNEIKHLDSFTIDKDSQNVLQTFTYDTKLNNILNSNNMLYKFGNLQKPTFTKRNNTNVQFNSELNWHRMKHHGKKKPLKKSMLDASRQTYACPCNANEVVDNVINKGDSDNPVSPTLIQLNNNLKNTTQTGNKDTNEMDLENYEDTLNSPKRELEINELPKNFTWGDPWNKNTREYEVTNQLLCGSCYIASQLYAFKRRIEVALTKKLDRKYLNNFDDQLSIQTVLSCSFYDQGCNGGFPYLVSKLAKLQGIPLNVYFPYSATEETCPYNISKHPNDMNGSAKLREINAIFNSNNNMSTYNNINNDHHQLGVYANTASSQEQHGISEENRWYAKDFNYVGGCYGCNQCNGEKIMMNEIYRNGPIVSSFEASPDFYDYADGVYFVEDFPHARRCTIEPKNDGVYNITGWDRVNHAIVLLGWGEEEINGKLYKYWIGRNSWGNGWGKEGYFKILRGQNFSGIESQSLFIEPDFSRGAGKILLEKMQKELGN

SMILES	% Inhibition @ 10 uM
O=C1c2cccnc2C(=O)N1c1ccccc1	1.01%
COc1ccc(OC)c(NC(=O)COc2ccc(Cl)cc2Cl)c1	-1.02%
CCCc1nc2nc(C)cc(NCc3ccccc3)n2n1	1.3%
O=C(COc1ccc(Cl)cc1S(=O)(=O)NCCOCC(F)(F)F)N1CCOCC1	3.54%
CC(=O)c1ccc(NC(=O)c2cnn3c(C(F)F)cc(C4CC4)nc23)cc1	-1.28%
O=C(Cn1nc(-c2ccccc2)ccc1=O)N1CCCCC1	2.18%
CCOc1cccc(C(=O)Nc2cccc(-c3nc4ncccc4o3)c2C)c1	-5.49%
O=C(Nc1ccccc1F)c1cccs1	0.467%
O=C(CSc1nc2c(sc3ccccc32)c(=O)n1CCCN1CCCC1)NCc1ccccc1	4.47%
COCCCNC(=O)Cn1nc(C)n2c(cc3ccccc32)c1=O	3.24%
CCn1c(-c2ccccc2)cs/c1=N\c1ccc(O)cc1	1.72%
O=C(c1ccco1)N1CCN(c2ncnc3[nH]cnc23)CC1	-3.47%
Cc1ccc2c(CN3CCN(c4ncccn4)CC3)cc(=O)oc2c1	-3.49%
CCOc1ccc(C(=O)C2=C(O)C(=O)N(Cc3ccco3)C2c2ccc(Br)cc2)cc1 (stereo not drawn)	-4.82%
CC1(C)CC(=O)C2=C(C1)OC(N)=C(C#N)C2c1ccc(COc2ccc(F)cc2Cl)o1 (stereo not drawn)	-1.84%
COc1ccc(/C=C/C(=O)O)cc1S(=O)(=O)NCC1CCCO1 (stereo not drawn)	1.25%
CCc1nc(SC)ncc1C(=O)NCCCN1CCCCC1	5.71%
OCCNCc1ccc(OCc2ccccc2Cl)cc1	2.84%
CC(C)(C)NC(=O)C1CCN(S(=O)(=O)c2ccc(F)cc2)CC1	1.57%
CN(Cc1ccccc1)C(=O)c1ccc([N+](=O)[O-])cc1	1.91%
O=C1CC(C2CCCO2)C(=O)N1c1ccc(Cl)cc1 (stereo not drawn)	-1.32%
COc1ccc(CCNC(=O)c2csc3c2CCCC3)cc1OC	-3.21%

SMILES	% Inhibition @ 10 uM
COCCN1C(=O)c2ccccc2C(C(=O)NCC2COc3ccccc3O2)C1c1ccc(F)cc1 (stereo not drawn)	2.84%
COc1cc([N+](=O)[O-])c(C)cc1NC(C)=O	-4.31%
CCOc1ccc(NC(=O)c2ccc(C(F)(F)F)cc2)cc1	0.161%
Cc1nn(-c2ccccc2)c2sc(C(=O)NCCc3ccccc3)cc12	1.75%
Cc1ccccc1Cn1c(C(=O)O)c(CNCCCN2CC(C)CC(C)C2)c2ccccc21 (stereo not drawn)	5.09%
COc1cc(C(=O)NCc2ccco2)cc(OC)c1OC	-5.64%
COc1cc(OC)c(S(=O)(=O)N2CCOCC2)cc1C(=O)Nc1cccc(C(=O)O)c1	0.0265%
Nc1nc(N)c2[nH]c(SCc3ccccc3)nc2n1	-5.48%
Cc1nc2c(c(C)c1CCC(=O)NCc1ccccc1Cl)c(=O)n(C)c(=O)n2C	-3.1%
CC(C)CCNc1nc2ccc(C(=O)c3ccccc3)cc2n2cnnc12	1.23%
Cc1ccccc1OCC(=O)Nc1cccc(N2C(=O)c3ccccc3C2=O)c1	1.9%
Cc1nc(SCC(=O)Nc2ccc(C(N)=O)cc2)c(C#N)c(C)c1C	0.674%
O=C(CN1C(=O)C2C3CCC(C3)C2C1=O)Nc1ccc(-c2ccccc2)cc1 (stereo not drawn)	1.79%
Cc1ccc(OCCN2CCN(c3ncnc4sc5c(c34)CCCC5)CC2)cc1	-0.85%
O=C(N1CCCC1)N1c2ccccc2Sc2ccccc21	3.7%
Cc1cc(C)cc(OS(=O)(=O)CCN2C(=O)NC3(CCCCC3)C2=O)c1	-0.424%
COc1ccc(C(=O)/C=C/c2ccc(Cl)cc2Cl)c(OC)c1	4.33%
CCOc1ccc(-c2cc(C(=O)N3CCC(C)CC3)c3ccccc3n2)cc1	-4.06%
COc1cc(NC(=O)CCc2ccccc2)c(C(=O)O)cc1OC	0.231%
COC(=O)c1c(NC(=O)c2ccccc2)sc(C(=O)Nc2ccccc2C)c1C	1.64%
COc1cc2c(cc1OC)C1C(C(=O)N3CCC4(CC3)OCCO4)c3ccccc3C(=O)N1CC2 (stereo not drawn)	1.16%
CCOC(=O)N1CCN(S(=O)(=O)c2ccc(C)cc2)C1C(C)C (stereo not drawn)	1.67%

SMILES	% Inhibition @ 10 uM
COc1cc(C2Nc3ccc4ccccc4c3C3=C2C(=O)CC(C)(C)C3)cc(OC)c1O (stereo not drawn)	2.78%
N#Cc1nc(COc2ccccc2)oc1NCc1ccc2c(c1)OCO2	1.43%
CC(Cc1ccccc1F)N[C@H]1CC[C@H](O)CC1 (stereo partly drawn)	0.0792%
COCCNc1nc2ccccc2n2c(C)nnc12	3.17%
COc1cccc(C2C(C#N)=C(N)Oc3cc(O)ccc32)c1 (stereo not drawn)	3.99%
O=C(O)c1ccc(Cn2c(SCc3ccc(F)cc3)nc3cccnc32)cc1	1.72%
CC(C)(C)Nc1ncnc(N)c1[N+](=O)[O-]	-9.6%
Cc1cccc(NC(=O)CN2Cc3ccccc3C2=O)n1	-4.96%
COc1ccc(-c2c(C(C)=O)c(C)nc3sc4c(SC)nc(C)nc4c23)cc1	-2.28%
CC(C)(C)NC(=S)N1CCn2cccc2C1c1ccccc1F (stereo not drawn)	7.92%
COc1ccc(C2C3=C(O)CC(C)(C)CC3=Nc3nc4ccccc4n32)cc1 (stereo not drawn)	-3.53%
Fc1ccc(F)c(CN2CCc3c([nH]c4ccccc34)C2)c1	-3.5%
COc1ccc(/C=C/c2nc3sc4c(c3c(=O)o2)CCCC4)cc1	-4.11%
FC(F)(F)c1cc(-c2ccccc2)nc2ncnn12	1.87%
Cc1ccccc1NC(=O)c1c(NC(=O)CCC(=O)O)sc2c1CCCCC2	1.71%
O=C(NC1CCN(c2ncccn2)CC1)c1cccc(F)c1	-10.6%
COc1ccc(CNCc2cc(OC)c(OC)cc2OC)cc1	-1.08%
CC(C)(C)c1ccc(-c2nc(O)c3ccccc3n2)cc1	-4.71%
Cc1ccc(NC(=O)c2ccccc2Cl)c(C)c1	-0.351%
CCCOc1ccc(N2C(=O)CC(NCCc3ccc(F)cc3)C2=O)cc1 (stereo not drawn)	-1.95%
O=C(O)CCNC(=O)c1cccnc1	0.222%
O=C([C@@H]1C[C@@H]1c1ccccc1)N1CCCCCC1	-3.77%
